Reference: paper doi:10.1101/2021.07.23.453429 (bioRxiv, 2021)

Target: cyclophilin D (UniProt P30405)
Assay: SPR

Chain of UniProt P30405 (P30405 43-207): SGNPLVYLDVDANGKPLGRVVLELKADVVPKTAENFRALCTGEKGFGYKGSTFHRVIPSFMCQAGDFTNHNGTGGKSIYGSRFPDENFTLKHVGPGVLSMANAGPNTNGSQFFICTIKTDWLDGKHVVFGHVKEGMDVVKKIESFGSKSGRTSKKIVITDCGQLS

- Kd: ~6 µM
B1: p53 NTD […] (domain or fragment)
chain: not shown
